Measured values: PubChem BioAssay AID1347120 (National Center for Advancing Translational Sciences (NCATS), 2019)
Hit rate of the full screen: of about 390,000 compounds, about 930 (0.24%) were called active. Inconclusive results, whose numbers are uncertain, are shown with a selection of clear calls. Calls follow the shape of the dose curve; as a rule, active = well fitted activation curve with a large enough effect; inconclusive = small, poorly fitted or top-dose-only effect; inactive = no such curve, though single readings can be large or run the other way. Potencies of inconclusive entries are doubtful fits and often do not repeat.

Assay: qHTS for Suppressors of FUS Proteinopathy: Primary screen using FUS-linked yeast assay; also: nearly all actives have a fitted effect of over 55% in size;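 as to growth rescue (activation): plate controls were DMSO vehicle for no effect and reference control for full effect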
Conditions: S. cerevisiae FUS-expressing, OD600, 24 h; Potency: growth rescue; growth rescue (activation): at 76.6 µM (top of the series)
In short: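 Quantitative HTS measuring growth restoration of FUS-toxic yeast. Galactose-induced cells (OD 0.005) were exposed 24hr at 30C to compounds at several concentrations, then absorbance at 600 nm was recorded.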
Potency is read from the fitted curve at half-maximal effect; tags tell the direction and shape of the fitted curve.

Compound | growth rescue (activation) | Potency
NC(=O)CNC(=O)C1CCCc2c1[nH]c1ccc(Cl)cc21 (stereo unspecified) | inactive: 21.6% | 
CCSc1nnc(NC(=O)CSc2nnc(Cc3cccn3C)n2CCc2ccccc2)s1 |  | inconclusive: 8.91 µM [activator, partial curve, poor fit]
O=C(COC(=O)c1cc([N+](=O)[O-])ccc1N1CCOCC1)Nc1cccc(F)c1 | inactive: 5.02% | 
CC(C)C(=O)N1CCN(c2ccccc2NC(=S)NC(=O)c2cccs2)CC1 | inactive: 35.6% | 
COC(=O)[C@@]12C[C@@H](CC(=O)NCC34CC5CC(CC(C5)C3)C4)C(=O)N(Cc3ccco3)C1=CCC(C)(C)C2 |  | inconclusive: 20 µM [activator, single point]
O=C(NCc1ccc2c(c1)OCO2)c1ccc2c(c1)N(Cc1c(F)cccc1Cl)C(=O)CS2 | inactive: 19.9% | 
CC(C)(C)c1ccc(CSC2=Nc3ccccc3C3=NC(CC(=O)NCc4cccs4)C(=O)N23)cc1 (stereo unspecified) |  | inconclusive: 44.7 µM [activator, single point]
Nc1ccc(Cl)c(-c2nc3ncccc3o2)c1 |  | inconclusive: 0.891 µM [activator, full curve, poor fit]
CC1CCCCN1C(=O)COC(=O)c1cc(-c2cccs2)nn1-c1ccccc1 (stereo unspecified) |  | inconclusive: 17.8 µM [activator, partial curve]
COC(=O)[C@]12CCCCC=C1N(Cc1ccc(Cl)cc1Cl)C(=O)[C@H](CC(=O)NCC1CCCCC1)C2 |  | inconclusive: 39.8 µM [activator, single point]
COc1ccc(S(=O)(=O)Nc2ccc(S(=O)(=O)N3CCCCC3)cc2)cc1 |  | inconclusive: 35.5 µM [activator, partial curve, poor fit]
CC(Oc1ccccc1F)C(=O)/C=C/N(C)C (stereo unspecified) | inconclusive: 46.3% [activator] | 
Cc1cc(Nc2ccc(Br)cc2)n2nc(-c3ccccc3C)nc2n1 | inactive: -1.71% | 
CCc1ccc(C(=O)Nc2cccnc2Oc2ccc(Cl)cc2)cc1 |  | inconclusive: 7.08 µM [activator, full curve]
Nc1nc(NCCN2CCOCC2)nc(NCc2ccccc2)c1[N+](=O)[O-] | inactive: -18.1% | 
CCOC(=O)[C@]12CCCC=C1N(CCC1=CCCCC1)C(=O)[C@H](CC(=O)NCc1ccc(C)o1)C2 |  | inconclusive: 22.4 µM [activator, single point]
CC(C)Cc1nnc(NC(=O)CN2C(=O)c3ccccc3C2=O)s1 |  | inconclusive: 11.2 µM [activator, partial curve]
CCOC(=O)COc1c(-c2ccc(OC)cc2)oc2ccccc2c1=O | inactive: 35.5% | 
CS(=O)(=O)N1CCc2cc(-c3csc(NC(=O)Cc4cccs4)n3)ccc21 |  | inconclusive: 14.1 µM [activator, partial curve]
COc1ccc(NS(=O)(=O)c2cccc(N/C(=N\S(=O)(=O)c3ccccc3)c3ccc(F)cc3)c2)cc1 |  | inconclusive: 15.8 µM [activator, partial curve, poor fit]
CCc1nc2ccc(C(=O)N3CCN(c4ccccc4F)CC3)cc2nc1CC |  | inconclusive: 20 µM [activator, partial curve, poor fit]

Compound | growth rescue (activation) | Potency
CC(C)CC(N)c1csc(NC(=O)Nc2ccccc2-c2ccccc2)n1 (stereo unspecified) |  | inconclusive: 22.4 µM [activator, single point]
Cc1ccccc1NC(=O)Cc1nc(COC(=O)COc2ccc(C(C)(C)C)cc2)cs1 |  | inconclusive: 22.4 µM [activator, partial curve, poor fit]
O=C(CCn1c(=O)oc2ccccc21)N1CCN(C(c2ccccc2)c2ccccc2)CC1 | inactive: 21.1% | 
COc1cccc(C2CC(=O)Nc3c2c(=O)n(C)c2nc4ccccc4n32)c1OC (stereo unspecified) | inactive: -14.2% | 
COc1cccc(Nc2nnc(-c3cc4ccc(O)cc4oc3=O)s2)c1 | inactive: -8.01% | 
COc1ccc(-c2cc3ccccc3n2CC(O)Cn2nc(C)cc2C)cc1 (stereo unspecified) |  | inconclusive: 31.6 µM [activator, partial curve, poor fit]
CC(C)OC(=O)CC(=O)c1sc2nc3c(cc2c1N)CN(C)CC3 |  | active: 12.6 µM
O=C(/C=C/c1c(F)cccc1Cl)c1ccc(F)cc1 | inactive: -2.69% | 
CC(C)(C)c1cnnn1-c1ccc(NC(=O)c2ccc(Br)o2)cc1 |  | inconclusive: 39.8 µM [activator, partial curve, poor fit]
CCOC(=O)N1CCC(NC(=O)c2cccc3c2C(=O)N(c2ccc(OC)cc2)C3)CC1 |  | inconclusive: 31.6 µM [activator, single point]
COc1ccc(NC(=O)Nc2nc(C(N)C3CCCCC3)cs2)cc1 (stereo unspecified) |  | inconclusive: 17.8 µM [activator, single point]
CCOC(=O)c1cccc(NC(=O)CS(=O)(=O)Cc2nc(-c3cccc(OC)c3)oc2C)c1 |  | inconclusive: 31.6 µM [activator, partial curve]
O=C(CN(c1ccccc1Cl)S(=O)(=O)c1ccccc1)NC1CC2CCC1C2 (stereo unspecified) |  | inconclusive: 35.5 µM [activator, single point]
CCC(C)(C(=O)NC1CCCC1)N(C(=O)c1ccccn1)c1ccccc1 (stereo unspecified) | inactive: 12.4% | 
Cc1ccc(C([O-])=C(C(=S)NCc2ccccc2)[n+]2cccc(CO)c2)cc1[N+](=O)[O-] |  | inconclusive: 50.1 µM [activator, single point]
CC[C@H](C)/C=C(C)/C=C/C1=CC2=CC(=O)[C@]3(C)OC(=O)[C@@H](C(C)=O)[C@@H]3C2=CO1 |  | inconclusive: 50.1 µM [activator, single point]
COc1ccccc1-c1cc(C(F)(F)F)nc(S(=O)(=O)CCCC(=O)Nc2cccnc2Cl)n1 | inactive: 23.3% | 
Cc1cccc(Cn2c(=O)n(Cc3ccco3)c(=O)c3ccccc32)c1 |  | inconclusive: 11.2 µM [activator, single point]
COc1cc(-c2cc3nc(NCCOc4ccccc4)ccn3n2)cc(OC)c1OC |  | inconclusive: 39.8 µM [activator, single point]
COC(=O)[C@]12C[C@H](CC(=O)N3CCC(c4ccccc4)CC3)C(=O)N(CCc3ccc(OC)c(OC)c3)C1=C[C@H](C(C)C)O[C@@H]2C1CC1 |  | inconclusive: 15.8 µM [activator, partial curve, poor fit]
